From patent US5393897A, “Isolation and structure of spongistatins 5,7,8 and 9” (Arizona Board of Regents acting on behalf of Arizona State …, priority 1993, dated 1995) come the findings set out here.

The data set has as its system P388. Particulars: mouse, in vivo, ip, 40 μg/kg/dose, Q1D × 9, female mice. The source says: Tumor system: P388; implant: IP 1.0 E + 06 cells; host: CD2FL female mice
median day of death: 10; schedule: IP, Q1D × 9 (1); vehicle: 5% ETO
+ distilled water; % ILS: % increase in life span over the controls.

Turning to `C=C(Cl)/C=C/C(O)CC(=C)CC1OC2C(C)C(OC(=O)CC3CC(OC(C)=O)CC4(CC(C)(O)CC(CC(=C)C(C)C(OC(C)=O)C(C)C(=O)CC5CC(OC)CC6(CC(O)CC(/C=C\CCCC7OC(O)(CC(O)C7C)C2O)O6)O5)O4)O3)C1O` (stereo not shown) [spongistatin 1, reference compound], the “toxicity” value was “toxic”.
